The source of these data is ChEMBL document CHEMBL1201862, “PubChem BioAssay data set” (2004).

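How tested: cells in 96-well plates exposed to compound for 48 hours at five concentrations. Abbreviation: GI50, concentration required for 50% inhibition of growth.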 Calls of active or inactive are those of the source. Rule as the data show it: active = GI50 up to about 1.1 µM and inactive = higher.

This assay concerns NCI-H322M. Briefly: growth of human tumour cells (NCI), 48 h.
As for `N=c1oc2ccc([N+](=O)[O-])cc2cc1C(=O)NCc1ccccc1`, the GI50 is inactive: 34.4 µM.

Take `COc1ccc2nccc(SCC(=O)O)c2c1`: the GI50 was inactive: > 100 µM.

For `CCOC(=O)C(C[Si](C)(C)C)P(=O)(OCC)OCC` (configuration not stated), the GI50 was inactive: > 100 µM.

Turning to `NNC(=O)/C(=C/c1ccc(Cl)cc1Cl)NC(=O)c1ccccc1`, the GI50 is inactive: > 100 µM.

In the case of `Cc1ccc([N+](=O)[O-])c2c(NCCNC(=O)c3cc(C(=O)NCCNc4ccnc5c(C)ccc([N+](=O)[O-])c45)n(C)n3)ccnc12`, the GI50 is inactive: > 59.4 µM.

Consider `CCOC(=O)C1(c2ccccc2)CCCNCC1` (configuration not stated), for which the GI50 is inactive: 47.3 µM.

Turning to `O=c1[nH]c(=O)n(COCc2ccccc2)c2ccsc12`, the GI50 is inactive: > 100 µM.

As to `Nc1ccc(C2=Nc3ccccc3SC(c3ccccc3O)C2)cc1` (configuration not stated), the GI50 is inactive: > 100 µM.

For `NC(CCCNCc1ccccc1)C(=O)O` (configuration not stated), the GI50 is inactive: > 100 µM.

Take `CC(C)N(O)C(=N)c1ccccc1`: the GI50 was inactive: > 100 µM.

In the case of `CCN(CC)c1ccc2cc(C(=O)NCc3ccccc3)c(=N)oc2c1`, the GI50 was inactive: > 100 µM.

In the case of `COC(=O)CNC(=O)CCSc1nnc(COc2ccc(Cl)cc2)n1-c1ccccc1`, the GI50 was inactive: 23 µM.

Regarding `CC1(O)CC2(O)C=CC3=C(C(=O)c4cccc(O)c4C3=O)C2(O)C(=O)C1O` (configuration not stated), the GI50 is inactive: 11.4 µM.

Consider `CC(C)C1(NC(=O)C2CC3c4cccc5[nH]cc(c45)CC3N(C)C2)OC2(O)C3CCCN3C(=O)C(Cc3ccccc3)N2C1=O` (configuration not stated), for which the GI50 was inactive: 34.8 µM.

`COC1OC(=O)C(OC)C(OC)C1OC` (configuration not stated): the GI50 was inactive: > 100 µM.

With `CCOC(=O)c1nc2ccccc2nc1Oc1ccc(C(=O)OC)cc1`, the GI50 was inactive: > 100 µM.

In the case of `O=C1N2CCc3c([nH]c4ccccc34)C23CC2CCCCC12S3` (configuration not stated), the GI50 was inactive: > 100 µM.

For `CC(C)C/C(CC(=O)CCC(=O)Nc1ccccc1[N+](=O)[O-])=N\NC(=O)c1cc2ccccc2cc1O`, the GI50 is inactive: 44.9 µM.

Consider `COC(=O)CCn1cnc2c(SC)ncnc21`, for which the GI50 is inactive: > 100 µM.

Take `CCN/C(=N\Nc1ccc([N+](=O)[O-])cc1)P(=O)(OC(C)C)OC(C)C`: the GI50 is inactive: > 100 µM.

In the case of `COc1cc([C@@H]2c3cc4c(cc3[C@@H](c3c(O)cc(O)c5c3O[C@H](c3ccc(O)c(O)c3)[C@@H](O)C5)[C@H]3COC(=O)[C@H]23)OCO4)cc(OC)c1OC`, the GI50 was inactive: 53.3 µM.

With `CCN1CCCn2c(=O)[nH]c3cc(Br)cc1c32`, the GI50 is inactive: > 100 µM.

As to `CC1=CC2C3(C)C(C)(C(C)=CP3(=O)c3c(C(C)C)cc(C(C)C)cc3C(C)C)C1P2(=O)c1c(C(C)C)cc(C(C)C)cc1C(C)C` (configuration not stated), the GI50 is inactive: 2.47 µM.

`CCCCCCCSCC1OC(n2cnc3c(N)ncnc32)C(O)C1O` (configuration not stated): the GI50 was inactive: 57.8 µM.

Regarding `Cc1cccc2c1c(=O)c1c(O)c3c(cc1n2C)OC(C)(C)C=C3`, the GI50 is inactive: > 10 µM.

Regarding `CC(=O)OCC12C(OC(C)=O)C[C@@H](C)C3(CC(c4ccoc4)OC3=O)C1CCC(O)C21CO1` (some centres not stated), the GI50 was inactive: > 100 µM.

As for `CC(=O)OCC1OC(N2C(=O)NC(=O)C3C=C4CCCCC4=CC32)CC1OC(C)=O` (configuration not stated), the GI50 was inactive: > 100 µM.

Regarding `Cc1cc(S(=O)(=O)O)c(NC(=O)c2oc3cc(O)ccc3c(=O)c2C)cc1Cl`, the GI50 is inactive: > 100 µM.

On to `Cn1c2c(c3c(=O)[nH]ncc31)CCc1ccccc1-2`, for which the GI50 was inactive: 37.9 µM.

Regarding `O=C(c1ccccc1)c1ccc(N2C(=O)/C(=C/c3cccc(Oc4ccccc4)c3)N=C2c2ccccc2)c(N2C(=O)/C(=C/c3cccc(Oc4ccccc4)c3)N=C2c2ccccc2)c1`, the GI50 is inactive: 71.1 µM.

For the compound `CN1C(=O)CC(c2cccc(C3CC(=O)N(C)C3=O)n2)C1=O` (configuration not stated), the GI50 is inactive: > 100 µM.

For the compound `C=CCCCC1(C)CCCCNC1=O` (configuration not stated), the GI50 was inactive: > 10 µM.

For the compound `COc1ccc2[nH]c3c(c2c1)CCc1c(OC)cccc1-3`, the GI50 was inactive: > 100 µM.

As to `Cc1cc2[nH]c3c(C#N)c(-c4ccccc4)c(CN4CCOCC4)c(=O)n3c2cc1C`, the GI50 was inactive: > 100 µM.

Take `CC(C)=CCC/C(C)=C/CC/C(C)=C/CC/C(C)=C/C=C/C=C(\C)CC/C=C(\C)CC/C=C(\C)CCC=C(C)C`: the GI50 is inactive: > 100 µM.

Consider `N=c1oc2ccccc2cc1C(=O)Nc1nccs1`, for which the GI50 is inactive: 68.1 µM.

`O=C(Nc1ccc(C(F)(F)F)cc1[N+](=O)[O-])C(=O)C(C(=O)c1ccc2ccccc2c1)C1OC(=O)c2ccccc21` (configuration not stated): the GI50 was inactive: 3.94 µM.

For `CC(=O)CC12NC(=O)N(C)N=C1N(C)C(=O)N(C)C2=O` (configuration not stated), the GI50 was inactive: > 100 µM.

Consider `O=Cc1ccc(-c2cc(C=O)c(-c3cccs3)[nH]2)s1`, for which the GI50 is inactive: 51.4 µM.

Regarding `Cc1ccc2nc(NC(=O)C(=O)C(C(=O)c3ccc4ccccc4c3)C3OC(=O)c4ccccc43)sc2c1` (configuration not stated), the GI50 is inactive: 8.45 µM.

Take `CC1=NN(c2nc(N)nc(CCl)n2)C(C)(C)C1`: the GI50 is inactive: 42.4 µM.

As for `C/C(=N\NC(=S)N1CCCCC1)c1cccc(C)n1`, the GI50 was active: < 0.0134 µM.

As for `O=c1c2cc3c(=O)n(CCc4ccccc4CO)c(=O)c3cc2c(=O)n1CCc1ccccc1CO`, the GI50 is inactive: > 100 µM.

Consider `O=C(NC(Cc1ccc(I)cc1)C(=O)O)c1cccc(Br)c1` (configuration not stated), for which the GI50 is inactive: > 100 µM.

With `CSC1=C(c2ccc(Cl)cc2)SC(N2CCCCC2)N1c1ccc([N+](=O)[O-])cc1` (configuration not stated), the GI50 is inactive: 29.3 µM.

With `CC(=O)OC1C=C(C=O)C(O)(C=O)C2(C)CCCC(C)(C)C12` (configuration not stated), the GI50 was inactive: 5.24 µM.

Turning to `O=C1CC(c2cccc([N+](=O)[O-])c2)C2(C(=O)NC(=O)NC2=O)C(c2cccc([N+](=O)[O-])c2)C1` (configuration not stated), the GI50 was inactive: 15.9 µM.

On to `S=c1nc(Nc2ccc(Cl)cc2)c2c3c(sc2[nH]1)CCCC3`, for which the GI50 was inactive: > 100 µM.

Consider `COC(=O)/C=C(/OC)[C@H](C)[C@H](/C=C/c1csc(-c2csc(C(C)C)n2)n1)OC`, for which the GI50 is inactive: 1.93 µM.

As for `CCOC(=O)c1csc(NC(=O)CN(C)C)n1`, the GI50 is inactive: > 100 µM.

With `CC(C)(C)c1cc(C(P(=O)(O)O)P(=O)(O)O)cc(C(C)(C)C)c1O`, the GI50 is inactive: > 100 µM.

Regarding `Cc1ccc(C(=O)Nc2ccc(CP(=O)(O)O)cc2)cc1NC(=O)Nc1cc(C(=O)Nc2ccc(CP(=O)(O)O)cc2)ccc1C`, the GI50 is inactive: > 100 µM.

As to `[N-]=[N+]=CC(=O)CCC(NC(=O)C(CCC(=O)C=[N+]=[N-])NC(=O)CCC(N)C(=O)O)C(=O)O` (configuration not stated), the GI50 is inactive: > 100 µM.

In the case of `C=CC[P@@]1(=O)O[C@H](c2ccccc2)C(C)N1C(C)C` (some centres not stated), the GI50 is inactive: > 100 µM.

On to `Nc1ccc(-c2nc3cc(F)ccc3s2)cc1Br`, for which the GI50 is inactive: 1.28 µM.

On to `Cc1cc(S(=O)(=O)Nc2nc3ccccc3c(=O)n2N)c(S)cc1Cl`, for which the GI50 is inactive: 37.5 µM.

Regarding `NC(=O)C[C@H](NC(=O)C1(NC(=O)[C@H](Cc2ccc(CP(=O)(O)O)cc2)NC(=O)C(=O)O)CCCCC1)C(=O)NCCCc1cccc2ccccc12`, the GI50 is inactive: > 10 µM.
